Laboratory results taken from patent publication US20170304236A1, “ANTIALLERGIC AGENT” (TOHOKU UNIVERSITY, priority 2015, published 2017).

Tested on: TSLP mRNA
Assay: TSLP mRNA expression in stimulated HaCaT cells (real-time PCR)
Details: TNF-α 100 ng/ml + IL-4 10 ng/ml stimulation, 16D10 10 and 100 μM, 4 hours
Protocol: HaCaT cells were suspended in 10% FBS-containing Dulbecco's MEM so as to have a cell count of 1.0×10^5 cells/mL, and the suspension was seeded into each well of a 12-well plate (Falcon (trademark)) at 1,000 μl per well, followed by culture at 37° C. under saturated humidity in the presence of 5% CO2 until the cells achieved 80% to 90% confluence in each well. The culture solution was removed, and the cells were washed once with PBS that had been warmed to 37° C. After that, 1 ml of 10% FBS-DMEM containing 16D10 (10 and 100 μM) and any of various stimulants [Poly(I:C) (50 μg/ml) (A), TNF-α (100 ng/ml) (B), and TNF-α (100 ng/ml)+IL-4 (10 ng/ml) (C)] was added, followed by further culture at 37° C. under saturated humidity in the presence of 5% CO2 for 4 hours. The final concentration of DMSO in each group was set to 0.1%.
After the culture, the culture solution was removed, and the cells were washed twice with PBS. After that, total RNA was extracted with RNAiso Plus. A reverse transcription reaction was performed with PrimeScript (trademark) RT Master Mix (Perfect Real Time) in accordance with an accompanying protocol. […] The threshold cycle (Ct) value of each sample was calculated by a 2nd derivative maximum method, and a relative calibration curve was created to confirm that amplification efficiency under PCR reaction conditions for each gene was close to 100%. […]

For `COc1ccc(OC)c(/C=C/C(=O)c2cc(OC)c(OC)cc2CCNC(C)=O)c1` [16D10, (E)-N-[2-[2-[3-(2,5-dimethoxyphenyl)-1-oxo-2-propen-1-yl]-4,5-dimethoxyphenyl]ethyl]acetamide], the “expression of TSLP mRNA” value was “suppressed”.
